From article PMC2808332
These are yes or no findings as the source states them, for the method shown. Some results given as binding are weak or reduced against the parent protein; the word gives no strength.

Amino acid sequences for entries named in this document (tags omitted).
UniProt Q9UIV1: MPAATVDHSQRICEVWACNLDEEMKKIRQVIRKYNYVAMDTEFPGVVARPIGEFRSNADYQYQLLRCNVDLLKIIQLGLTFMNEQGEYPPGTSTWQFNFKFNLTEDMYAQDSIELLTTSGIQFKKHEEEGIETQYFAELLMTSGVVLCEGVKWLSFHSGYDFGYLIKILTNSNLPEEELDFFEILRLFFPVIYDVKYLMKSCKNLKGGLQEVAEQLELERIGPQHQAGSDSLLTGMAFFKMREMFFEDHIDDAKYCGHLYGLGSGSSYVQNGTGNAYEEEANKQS
UniProt Q9H6T3: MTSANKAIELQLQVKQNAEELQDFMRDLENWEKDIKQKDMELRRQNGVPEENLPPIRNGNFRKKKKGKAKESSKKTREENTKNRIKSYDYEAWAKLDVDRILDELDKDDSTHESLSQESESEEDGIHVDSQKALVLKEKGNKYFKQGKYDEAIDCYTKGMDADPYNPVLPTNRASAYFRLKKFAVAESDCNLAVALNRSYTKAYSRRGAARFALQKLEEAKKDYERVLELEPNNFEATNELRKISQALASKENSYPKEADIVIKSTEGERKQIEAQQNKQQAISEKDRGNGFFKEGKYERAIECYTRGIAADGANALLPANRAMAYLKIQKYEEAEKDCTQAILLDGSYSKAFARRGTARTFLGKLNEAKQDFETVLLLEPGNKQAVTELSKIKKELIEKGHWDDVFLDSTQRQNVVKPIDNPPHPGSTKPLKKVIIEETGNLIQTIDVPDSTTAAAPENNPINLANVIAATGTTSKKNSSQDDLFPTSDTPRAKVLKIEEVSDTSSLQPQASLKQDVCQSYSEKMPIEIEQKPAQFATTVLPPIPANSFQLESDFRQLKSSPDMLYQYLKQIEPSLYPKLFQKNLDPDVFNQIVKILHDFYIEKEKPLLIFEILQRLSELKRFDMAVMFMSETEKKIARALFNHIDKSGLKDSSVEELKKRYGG

Tests used:
Test in all cases: peptide or protein array; Invitrogen Protoarray v4.0, about 8,400 human proteins spotted on nitrocellulose-coated glass slides; 10 µg biotinylated tag-free NEMO in 120 µl probing buffer (PBS, 0.5 mM DTT, 5 mM MgCl2, 5% glycerol, 0.05% Triton X-100), 4°C, 1.5 h; bound NEMO detected with labelled streptavidin; hits Z-score > 3, hits of the biotin-GST control array subtracted; both purified
[1] = target: CCR4-NOT transcription complex, subunit 7 (human) (UniProt Q9UIV1)
[2] = target: T1, Myeloid/lymphoid or mixed-lineage leukemia; translocated to, 6 (human) (UniProt P55198)
T1 sequence: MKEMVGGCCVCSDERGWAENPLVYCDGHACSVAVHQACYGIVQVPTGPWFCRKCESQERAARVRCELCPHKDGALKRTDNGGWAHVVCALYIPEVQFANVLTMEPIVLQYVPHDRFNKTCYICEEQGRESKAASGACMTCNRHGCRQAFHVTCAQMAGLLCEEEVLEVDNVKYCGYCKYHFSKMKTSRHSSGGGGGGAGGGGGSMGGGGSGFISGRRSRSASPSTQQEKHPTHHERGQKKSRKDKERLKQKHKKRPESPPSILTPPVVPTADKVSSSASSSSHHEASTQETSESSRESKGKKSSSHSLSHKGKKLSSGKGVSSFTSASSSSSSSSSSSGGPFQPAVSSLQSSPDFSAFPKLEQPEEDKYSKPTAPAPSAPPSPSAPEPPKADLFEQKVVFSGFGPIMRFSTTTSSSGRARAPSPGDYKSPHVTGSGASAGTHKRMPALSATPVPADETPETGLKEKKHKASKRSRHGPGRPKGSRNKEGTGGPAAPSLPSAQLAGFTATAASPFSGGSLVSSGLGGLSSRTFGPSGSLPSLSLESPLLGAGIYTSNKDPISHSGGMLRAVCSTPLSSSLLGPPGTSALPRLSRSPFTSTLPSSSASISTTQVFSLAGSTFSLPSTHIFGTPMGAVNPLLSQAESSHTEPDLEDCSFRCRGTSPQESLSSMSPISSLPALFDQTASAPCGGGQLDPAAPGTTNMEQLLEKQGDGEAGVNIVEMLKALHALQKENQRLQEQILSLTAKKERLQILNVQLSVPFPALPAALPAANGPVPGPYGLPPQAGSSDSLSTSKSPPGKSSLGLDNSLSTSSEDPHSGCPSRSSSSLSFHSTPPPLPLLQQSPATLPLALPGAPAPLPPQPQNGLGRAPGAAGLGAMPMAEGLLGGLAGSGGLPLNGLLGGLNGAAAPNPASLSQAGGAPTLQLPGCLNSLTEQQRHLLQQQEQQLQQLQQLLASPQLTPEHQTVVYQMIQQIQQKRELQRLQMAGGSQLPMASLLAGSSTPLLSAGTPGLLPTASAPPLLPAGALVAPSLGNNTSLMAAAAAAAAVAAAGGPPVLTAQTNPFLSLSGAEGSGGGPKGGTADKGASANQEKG

[3] = target: T2, Arginine and glutamate rich 1 (human) (UniProt Q9NWB6)
T2 sequence: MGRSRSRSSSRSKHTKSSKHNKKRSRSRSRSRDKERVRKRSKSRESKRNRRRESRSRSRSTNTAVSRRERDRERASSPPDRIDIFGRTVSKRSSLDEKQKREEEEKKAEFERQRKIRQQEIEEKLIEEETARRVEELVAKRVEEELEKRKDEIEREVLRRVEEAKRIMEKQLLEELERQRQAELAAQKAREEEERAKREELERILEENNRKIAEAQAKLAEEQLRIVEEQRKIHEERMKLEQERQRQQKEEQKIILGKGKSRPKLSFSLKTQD

[4] = target: RNA polymerase II associated protein 3 (human) (UniProt Q9H6T3)
[5] = target: T3, Killer cell immunoglobulin-like receptor, three domains, X1 (human) (UniProt Q9H7L2)
T3 sequence: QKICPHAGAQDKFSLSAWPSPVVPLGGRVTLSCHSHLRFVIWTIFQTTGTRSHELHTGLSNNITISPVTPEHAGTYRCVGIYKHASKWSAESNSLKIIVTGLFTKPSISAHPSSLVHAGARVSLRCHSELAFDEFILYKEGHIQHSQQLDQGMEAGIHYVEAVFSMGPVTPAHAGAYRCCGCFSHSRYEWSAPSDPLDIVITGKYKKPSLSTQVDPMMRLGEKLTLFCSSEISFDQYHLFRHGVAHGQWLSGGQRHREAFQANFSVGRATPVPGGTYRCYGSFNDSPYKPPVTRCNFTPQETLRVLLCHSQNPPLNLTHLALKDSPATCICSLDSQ

Measured: binding

NEMO (NF-κB essential modulator), tag-free, biotinylated (from UniProt Q9Y6K9 1-419)
binds: all assays above
